Laboratory results as given in paper PMC5510845.
Results are given in words; binding and its absence hold for the method and conditions named. For some assays here: In cells and extracts the contact can be indirect. Some results given as binding are weak or reduced against the parent protein; the word gives no strength. For some assays here: Where a sequence is shown, tags or fusion partners need not be part of it.

Amino acid sequences for entries named in this document (tags omitted). A change or cut given only in a name is not applied to a line headed by its entry.
UniProt P06536: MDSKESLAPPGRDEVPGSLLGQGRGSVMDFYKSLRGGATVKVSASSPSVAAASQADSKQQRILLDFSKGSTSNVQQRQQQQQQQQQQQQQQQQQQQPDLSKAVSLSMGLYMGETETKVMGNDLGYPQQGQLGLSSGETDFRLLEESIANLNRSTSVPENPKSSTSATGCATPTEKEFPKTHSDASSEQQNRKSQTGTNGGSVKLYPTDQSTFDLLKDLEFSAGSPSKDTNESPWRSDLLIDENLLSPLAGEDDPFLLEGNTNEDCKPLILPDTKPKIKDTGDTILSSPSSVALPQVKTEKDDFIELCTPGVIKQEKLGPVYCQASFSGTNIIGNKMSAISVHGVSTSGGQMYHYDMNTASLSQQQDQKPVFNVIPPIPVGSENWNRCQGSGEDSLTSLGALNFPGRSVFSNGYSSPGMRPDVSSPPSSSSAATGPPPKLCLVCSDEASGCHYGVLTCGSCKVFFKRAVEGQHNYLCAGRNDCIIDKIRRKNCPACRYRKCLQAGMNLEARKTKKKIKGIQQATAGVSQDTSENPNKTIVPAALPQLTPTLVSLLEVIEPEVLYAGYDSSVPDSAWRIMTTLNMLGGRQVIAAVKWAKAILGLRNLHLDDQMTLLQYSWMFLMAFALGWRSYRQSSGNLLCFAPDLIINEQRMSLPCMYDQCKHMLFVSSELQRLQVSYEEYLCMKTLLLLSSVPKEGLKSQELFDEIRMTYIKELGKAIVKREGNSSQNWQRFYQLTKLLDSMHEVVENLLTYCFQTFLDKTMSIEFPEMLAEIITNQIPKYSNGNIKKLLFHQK
UniProt Q9P0M6: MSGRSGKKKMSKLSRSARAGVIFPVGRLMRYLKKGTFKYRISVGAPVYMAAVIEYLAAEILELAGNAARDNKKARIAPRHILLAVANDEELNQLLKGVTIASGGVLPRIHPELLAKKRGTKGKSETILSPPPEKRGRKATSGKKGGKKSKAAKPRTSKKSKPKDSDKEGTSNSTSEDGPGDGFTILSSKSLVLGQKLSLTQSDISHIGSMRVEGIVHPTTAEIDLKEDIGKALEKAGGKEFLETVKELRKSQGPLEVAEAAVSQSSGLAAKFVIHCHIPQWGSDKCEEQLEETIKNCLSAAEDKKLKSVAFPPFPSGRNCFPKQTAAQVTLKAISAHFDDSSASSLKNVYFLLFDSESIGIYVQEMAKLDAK

Experiments:
[1] = target: rat glucocorticoid receptor isoform GRα, full length, with AF1 mutations E219K/F220L/W234R (Y2H bait) (rat) (UniProt P06536); assay: two-hybrid; the same LexA-GR baits and preys on selective plates in the absence of hormone
[2] = target: rat glucocorticoid receptor isoform GRα, full length, with AF1 mutations E219K/F220L/W234R (Y2H bait) (rat) (UniProt P06536); assay: two-hybrid; LexA-GR baits against preys on selective plates with hormone (desoxycorticosterone: 0.5 or 1 μM for GRα and 0.25 or 0.5 μM for GRγ in the screens; 1 μM in Fig 1B; 300 nM in Fig 1D,E); screen and re-tests in fresh yeast cells
[3] = target: protein A tagged GRα (co-IP) (rat) (UniProt P06536); assay: co-IP; luciferase-based co-IP; PA-tagged GR precipitated from cleared T-Rex 293 cell extract in IgG-coated microtiter plates, 1 h at 4°C; firefly-V5-tagged partner read by luciferase activity, as fold change over protein A only; cells treated for 1 h with 1 μM dexamethasone or ethanol vehicle

Row | Molecule | binding [1] | binding [2] | binding [3]
1 | firefly-V5-tagged JDP2 (Jun dimerization protein-2, co-IP) (protein, UniProt Q8WYK2-2 1-174) MVAGWPATPPAMMPGQIPDPSVTTGSLPGLGPLTGLPSSALTVEELKYADIRNLGAMIAPLHFLEVKLGKRPQPVKSELDEEEERRKRRREKNKVAAARCRNKKKERTEFLQRESERLELMNAELKTQIEELKQERQQLILMLNRHRPTCIVRTDSVKTPESEGNPLLEQLEKK |  |  | binds
2 | Basic Leucine Zipper ATF-Like Transcription Factor 3 (Y2H prey) (protein, UniProt Q9NR55 1-127) MSQGLPAAGSVLQRSVAAPGNQPQPQPQQQSPEDDDRKVRRREKNRVAAQRSRKKQTQKADKLHEEYESLEQENTMLRREIGKLTEELKHLTEALKEHEKMCPLLLCPMNFVPVPPRPDPVAGCLPR |  | no binding | 

The remaining lines, values ahead:

Row | binding [1] | binding [2] | binding [3] | Molecule
3 | no binding (condition: without hormone) | binds |  | histone variant macroH2A2 (Y2H prey) (from UniProt Q9P0M6 1-372)
4 |  |  | binds | luciferase-BATF3 fusion protein (firefly-V5-tagged BATF3, co-IP) (protein, UniProt Q9NR55 1-127) MSQGLPAAGSVLQRSVAAPGNQPQPQPQQQSPEDDDRKVRRREKNRVAAQRSRKKQTQKADKLHEEYESLEQENTMLRREIGKLTEELKHLTEALKEHEKMCPLLLCPMNFVPVPPRPDPVAGCLPR
